This is an account of results in paper PMC6212790.

The other results are listed elsewhere or left out. At the low end of the ranking, values are background and their order means little.

The experiment concerns the target T1, GST-Rok-C97-191 (UniProt O34857).
T1 sequence: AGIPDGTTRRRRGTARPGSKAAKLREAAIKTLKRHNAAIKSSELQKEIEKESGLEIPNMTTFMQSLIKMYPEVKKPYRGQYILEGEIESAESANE
Kind of experiment: protein binding microarray.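 Also: rank score from −0.5 (least bound) to 0.5 (best bound).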 As to conditions: Rok is a gene silencer of Bacillus subtilis; high values mean tight binding; most listed sequences are background and not binding sites; double strand, one strand shown.
Regarding ATACGCTG, the binding signal is -0.171 E-score.

In the case of AAGGAGTG, the binding signal was -0.112 E-score.

In turn, CGTTGGAC gave a binding signal of -0.234 E-score.

ACCGCACG yielded a binding signal of -0.0493 E-score.

The sequence GGATGACC registered a binding signal of 0.015 E-score.

In turn, GACACTCC displayed a binding signal of -0.0753 E-score.

On to TTACTCAA, for which the binding signal was -0.00125 E-score.

For the sequence CTTGAATC, the binding signal was -0.0481 E-score.

In turn, AAACGATG yielded a binding signal of -0.09 E-score.

Consider ATTTTCCA, for which the binding signal worked out at 0.105 E-score.

For GGTTATAC, the binding signal is 0.149 E-score.

CCACCCAG showed a binding signal of -0.077 E-score.

GATGAGCA registered a binding signal of -0.0926 E-score.

Sequence GTCCTGAA came in with a binding signal of -0.091 E-score.

ACATTTGG: the binding signal was determined as 0.0911 E-score.

In the case of AACTGGAG, the binding signal was -0.0792 E-score.

Regarding CTCGAGAA, the binding signal was -0.0447 E-score.

TCGAGTCA yielded a binding signal of -0.0547 E-score.

As to ACACCCCC, the binding signal is -0.185 E-score.

Turning to CCGTGACG, the binding signal is -0.0651 E-score.

In turn, GACTGGGC had a binding signal of -0.357 E-score.

GCATCACC: the binding signal was -0.18 E-score.

GGTATAAC had a binding signal of 0.266 E-score.

As to ATAAAGTC, the binding signal was -0.00083 E-score.

Regarding CTACTAGC, the binding signal is 0.256 E-score.

For ATAGGCTG, the binding signal was -0.0725 E-score.

GCTTAAGA had a binding signal of -0.117 E-score.

ACCTCTGA registered a binding signal of -0.0286 E-score.

The sequence CGGGTACA yielded a binding signal of 0.0353 E-score.

AACTCAGG: the binding signal is 0.021 E-score.

In the case of ATACCGGA, the binding signal came to 0.0662 E-score.

For the sequence CTACATCC, the binding signal turned out to be 0.113 E-score.

With GACCTGTA, the binding signal was -0.217 E-score.

Sequence CTCATCCC gave a binding signal of -0.256 E-score.

As to ACGAAAAT, the binding signal is 0.165 E-score.

ACCCACCG: the binding signal was -0.244 E-score.

In turn, ACAAGAGG registered a binding signal of -0.0755 E-score.

In turn, ACTACCCC had a binding signal of 0.242 E-score.

ATTAAAAT yielded a binding signal of 0.218 E-score.

Regarding AGTCTCAG, the binding signal is -0.27 E-score.

The sequence ATCACGAA displayed a binding signal of 0.0788 E-score.

Regarding CCCCTCAG, the binding signal was -0.312 E-score.

CGTTACGA came in with a binding signal of 0.0443 E-score.

As for ATCCGTTC, the binding signal stood at 0.0593 E-score.

Consider TAGCGCCA, for which the binding signal is 0.0762 E-score.

In turn, TCCGACAA registered a binding signal of -0.152 E-score.

Regarding ACCCGGCA, the binding signal was -0.187 E-score.

Turning to ATACCACC, the binding signal was 0.165 E-score.

Sequence TATCAGCA showed a binding signal of -0.0684 E-score.

With TGACCGAA, the binding signal turned out to be 0.102 E-score.

Sequence CAGGGAAC showed a binding signal of -0.0657 E-score.

In the case of ATTCTCCC, the binding signal was -0.0584 E-score.

The sequence CCTGCACA returned a binding signal of -0.264 E-score.

In turn, TAGGGTCA gave a binding signal of -0.0723 E-score.

Regarding GATCTGTA, the binding signal was -0.0473 E-score.

Sequence CCCCGGGG yielded a binding signal of -0.386 E-score.

With CTCCATTA, the binding signal was found to be 0.109 E-score.

AACAATTA returned a binding signal of 0.24 E-score.

In the case of ACGGGTTG, the binding signal is -0.288 E-score.

Sequence CGCAGGAG displayed a binding signal of 0.124 E-score.

As for ACTCTTAC, the binding signal stood at 0.0509 E-score.

GGCTCTTA had a binding signal of -0.292 E-score.

In turn, CGGGTCAG came in with a binding signal of -0.174 E-score.

As for CAGAGGGA, the binding signal was -0.195 E-score.

In the case of GTCGCAGA, the binding signal is -0.0549 E-score.

The sequence AAAAATAC showed a binding signal of 0.32 E-score.

Sequence CTACGCCC showed a binding signal of -0.233 E-score.

For the sequence CCCCAAGA, the binding signal was -0.151 E-score.

For the sequence AGGTTGCA, the binding signal is -0.137 E-score.

CGCTGGCC came in with a binding signal of -0.363 E-score.

ACTAACGC displayed a binding signal of 0.065 E-score.

For GATAACCA, the binding signal was -0.0375 E-score.

In turn, GGAATGCC registered a binding signal of -0.207 E-score.

On to AGAGTGCA, for which the binding signal is -0.0621 E-score.

In turn, GTAACCTA yielded a binding signal of 0.00577 E-score.

GTCCGTAA had a binding signal of 0.0323 E-score.

Take AATTAGAT: the binding signal was determined as 0.314 E-score.

With GCGCCGGA, the binding signal is -0.0972 E-score.

Take AAGATAAT: the binding signal was found to be 0.339 E-score.

Consider AATGCCCG, for which the binding signal is -0.137 E-score.

As to GTACTTGA, the binding signal was 0.0955 E-score.

Sequence GGGTCGGA gave a binding signal of -0.324 E-score.

CACCTTGC had a binding signal of -0.182 E-score.

With AGCATATC, the binding signal stood at 0.00915 E-score.

GAGTCTCC: the binding signal is -0.12 E-score.

GGAGATGA had a binding signal of -0.174 E-score.

ACTAAAGA yielded a binding signal of 0.123 E-score.

As to CAACTAAG, the binding signal was found to be 0.1 E-score.

For the sequence AGGTAAAC, the binding signal was -0.0228 E-score.

As for AAGTTCCG, the binding signal turned out to be 0.194 E-score.

ACGTTCGA had a binding signal of -0.00306 E-score.

As to CATTACAC, the binding signal stood at 0.079 E-score.

For the sequence GCTTAGAA, the binding signal came out at 0.1 E-score.

For ACTTCACA, the binding signal was found to be 0.138 E-score.

In turn, CGCAGATA gave a binding signal of 0.00922 E-score.

AGTAGAGC: the binding signal is -0.089 E-score.

Sequence ACGGTACT came in with a binding signal of 0.157 E-score.

GCACAGCA displayed a binding signal of -0.0762 E-score.

The sequence CAGAGCTA showed a binding signal of 0.0342 E-score.

With AGGTTGTG, the binding signal is -0.0885 E-score.

CAGTTAGG: the binding signal was -0.041 E-score.

Sequence AGTGATAC showed a binding signal of 0.175 E-score.

In turn, ATCCCGGC came in with a binding signal of -0.122 E-score.

In the case of ACACAACC, the binding signal was -0.0277 E-score.

CTTTTCAC gave a binding signal of -0.0695 E-score.

For the sequence CCAACTTC, the binding signal was determined as 0.08 E-score.

GGTATACA came in with a binding signal of 0.15 E-score.

Sequence CTAAAAGC displayed a binding signal of 0.0397 E-score.

ACTTTGTG gave a binding signal of 0.0777 E-score.

For CTGAACCC, the binding signal was -0.186 E-score.

Consider CGTCCTTA, for which the binding signal was 0.175 E-score.

As for ACCTCGAA, the binding signal stood at 0.146 E-score.

The sequence ATTACCGC registered a binding signal of 0.0668 E-score.

ATACGATC returned a binding signal of 0.0636 E-score.

GTGTAATA yielded a binding signal of 0.238 E-score.

For the sequence CTGCCAGC, the binding signal is -0.0803 E-score.

In the case of GCATGCCC, the binding signal was -0.404 E-score.

In turn, AACTGCGA showed a binding signal of -0.017 E-score.

AAAAGGAT had a binding signal of -0.0734 E-score.

The sequence AGCGCAAC came in with a binding signal of 0.00289 E-score.

The sequence GCCACGCA showed a binding signal of -0.161 E-score.

The sequence ATATGGTC yielded a binding signal of 0.108 E-score.

CCTCCAGC came in with a binding signal of -0.101 E-score.

As to GCTTTTAC, the binding signal stood at 0.229 E-score.

Consider AAGGTATC, for which the binding signal stood at 0.149 E-score.

In the case of ATATTGGG, the binding signal was 0.116 E-score.

For the sequence AGCTCGAT, the binding signal was 0.0641 E-score.

In turn, CCTTCGAA showed a binding signal of -0.109 E-score.

With CACAGTAA, the binding signal is 0.129 E-score.

For GGGCGCCC, the binding signal is -0.281 E-score.

Regarding CGATACGC, the binding signal is -0.112 E-score.

The sequence CAGACTAA returned a binding signal of -0.0795 E-score.

As for CCTTTGCG, the binding signal was -0.172 E-score.

The sequence AGAGCGGC came in with a binding signal of -0.256 E-score.

Take ATGGTAAC: the binding signal came to 0.23 E-score.

Sequence AAACGGAT showed a binding signal of -0.013 E-score.

Turning to AGAACCAG, the binding signal turned out to be 0.000695 E-score.

ACTCGTCT gave a binding signal of -0.0669 E-score.

TAAAGACA yielded a binding signal of -0.0751 E-score.

GGCGTTTA: the binding signal was -0.0275 E-score.

With AACCTGAC, the binding signal is -0.14 E-score.

Consider CCGCTAAA, for which the binding signal came to 0.121 E-score.

As to CGTTTAAC, the binding signal was found to be 0.0785 E-score.

Take TCGATCGA: the binding signal was 0.0869 E-score.

As to ACGCCCAG, the binding signal is -0.38 E-score.

ATTTCCCA registered a binding signal of 0.124 E-score.

In turn, ACTTGTGC had a binding signal of 0.0311 E-score.

AGCGTCAG displayed a binding signal of -0.106 E-score.

AAGCACTA: the binding signal was found to be 0.0569 E-score.

In the case of CCCAGGGA, the binding signal is -0.0839 E-score.

Sequence CAGTATGA came in with a binding signal of 0.176 E-score.

CAAGCCTC yielded a binding signal of -0.0994 E-score.

For the sequence CCATCTAG, the binding signal is -0.0123 E-score.

The sequence TCCAGCGA showed a binding signal of -0.0104 E-score.

Consider GGACATAA, for which the binding signal came to 0.208 E-score.

Sequence AAAATTTT came in with a binding signal of 0.274 E-score.

CTTGACGA yielded a binding signal of -0.14 E-score.

In the case of ACAAAAAG, the binding signal was -0.0948 E-score.

With GGCCCGGA, the binding signal is -0.378 E-score.

As to AAGTTCAT, the binding signal was found to be 0.0467 E-score.

The sequence AGTCAGTC gave a binding signal of -0.151 E-score.

GCTAGGCC: the binding signal was -0.146 E-score.

For CCATCCCC, the binding signal is -0.128 E-score.

In the case of CACGCGTG, the binding signal came out at 0.0775 E-score.

Consider GCAGTCGA, for which the binding signal was -0.243 E-score.

ACTAAAAT: the binding signal came to 0.397 E-score.

On to GCTTCGAA, for which the binding signal was -0.168 E-score.

Sequence CAATCTAG displayed a binding signal of 0.206 E-score.

Turning to ATAACGCG, the binding signal is 0.181 E-score.

In turn, TCATTTCA yielded a binding signal of -0.0244 E-score.

AGCACAAC showed a binding signal of -0.114 E-score.

In the case of CAATCCCA, the binding signal is -0.0402 E-score.
